Experimental data taken from PubChem BioAssay AID485364 (National Center for Advancing Translational Sciences (NCATS), 2010).
Hit rate of the full screen: of about 360,000 compounds, about 11,000 (3.1%) were called active. The inconclusive results got no clear call from the source; some entries with a clear call stand among them for comparison. The call rests on the fitted dose curve; in most records, active means well fitted inhibition curve with a large enough effect; inconclusive means small, poorly fitted or top-dose-only effect; inactive means no such curve, though single readings can be large or run the other way. No potency is given beside an inconclusive call; the fits are too rough.

Each compound was assayed against Schistosoma mansoni thioredoxin glutathione reductase (TGR) (UniProt Q962Y6) (assay: qHTS Assay for the Inhibitors of Schistosoma Mansoni Peroxiredoxins). Conditions: purified TGR, DTNB reduction, TNB absorbance 405 nm; activity change, negative = inhibition: at 114 µM (top of the series) unless noted.
In short: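 Kinetic colorimetric format: TGR-catalysed, NADPH-driven DTNB reduction monitored via TNB absorbance. Enzyme dispensed at 20 nM; compound exposure 15 min at room temperature before reaction start.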
Further: nearly all actives have a fitted effect of over 60% in size.
On the % scale 0 is the no-effect control and ±100 the full control effect; potency means the concentration at half of the fitted maximal effect; tags describe the fitted curve by direction and shape.

Compound | activity change, negative = inhibition | Potency
CC(=O)c1c(OCC(=O)O)ccc2c(C)cc(=O)oc12 | inactive: 0.771% | –
OCc1cn(Cc2ccc(O)c3ncccc23)cn1 | – | inconclusive [inhibitor, partial curve]
COc1ccc(-n2c(-c3cccc(OC)c3)nc(=S)c3c2CCCC3)cc1 | – | inconclusive [inhibitor, single point]
O=C(CN1CCN(Cc2ccccc2Cl)CC1)N/N=C/C=C/c1ccccc1[N+](=O)[O-] | inactive: 8.69% | –
CCCCC1C(=O)N(c2ccccc2)N(c2ccc(O)cc2)C1=O (configuration not stated) | – | active: 10 µM
CC(CCc1ccco1)NC(=O)c1cc2c(-c3ccccc3F)nn(C)c2s1 (configuration not stated) | – | inconclusive [inhibitor, partial curve]
Cn1c(O)c(C(=Nc2ccccc2)SCc2ccccc2Cl)c(=O)n(C)c1=O | – | inconclusive [inhibitor, full curve]
O=C1NC(=S)NC(=O)C1C/C=C/c1ccccc1 | – | inconclusive [inhibitor, partial curve]
COc1cc(CN2CCNC(=O)C2CC(=O)N(C)CCN2CCOCC2)cc(OC)c1 (configuration not stated) | – | inconclusive [inhibitor, partial curve]
COc1cc(/C=C2/C(=O)N(c3ccc([N+](=O)[O-])cc3)N=C2N2CCOCC2)ccc1O | – | inconclusive [inhibitor, full curve, poor fit]
COc1ccc(CN2C(=O)CCC(C(=O)O)C2c2ccccc2)cc1 (configuration not stated) | – | inconclusive [inhibitor, single point]
CN(C)CCOC(=O)c1ccc2[nH]c3c(c2c1)CSCC3 | – | inconclusive [inhibitor, partial curve]
COC(=O)c1cc(NC(=S)Nc2cc(Cl)cc(Cl)c2)cc(C(=O)OC)c1 | – | inconclusive [inhibitor, partial curve]
COc1ccc(OCCOc2cccc(C=C3C(=O)NC(=O)NC3=O)c2)cc1 | – | active: 11.2 µM
CCCOC1CCCN(C(=O)c2ccc(OC3CCN(Cc4ccccn4)CC3)cc2)C1 (configuration not stated) | – | inconclusive [inhibitor, partial curve]
CCn1nc([N+](=O)[O-])c(C(C#N)c2nc3ccccc3n2C)c(Cl)c1=O (configuration not stated) | – | active: 14.1 µM
COc1nc(-c2ccccc2)ccc1-c1noc(COc2ccccc2)n1 | inactive: -11.3% | –
Cc1cc(-c2nnc(SCc3ccccn3)o2)no1 | inactive: 6.53% | –
CCc1cc[n+](C2=C([O-])c3ccccc3C(=O)/C2=N\S(=O)(=O)c2cccs2)cc1 | – | inconclusive [inhibitor, partial curve]
CCC(=O)NC(c1cccs1)c1cc([N+](=O)[O-])c2cccnc2c1OC (configuration not stated) | – | active: 39.8 µM
Cc1nc(NC(=S)Nc2ccccc2)sc1C | – | inconclusive [inhibitor, full curve]
COc1ccc(C(c2oc(CO)cc(=O)c2O)c2oc(CO)cc(=O)c2O)cc1OC | – | inconclusive [inhibitor, partial curve]
Cc1ccc(S(=O)(=O)NCCn2nc(C)nc2C)cc1 | inactive: 7.28% | –
CC(=O)Nc1sc2c(c1C(c1ccc(F)cc1)N1CCOCC1)CCCC2 (configuration not stated) | – | inconclusive [inhibitor, partial curve]

Compound | activity change, negative = inhibition | Potency
CCCC(=O)NC(=S)Nc1cccc2c(O)cccc12 | – | active: 14.1 µM
Cc1nc(CC(C)C)cc(C(=O)N2CCCC(Nc3ccc(C)c(C)c3)C2)n1 (configuration not stated) | – | inconclusive [inhibitor, full curve, poor fit]
CCCC(c1nnnn1CC(=O)OCC)N(Cc1cc2c(C)cc(C)cc2[nH]c1=O)C1CCCC1 (configuration not stated) | – | inconclusive [inhibitor, partial curve]
Cc1cc(C)c(C(=O)N2CCCC(N3CCN(c4ccc(F)cc4)CC3)C2)o1 (configuration not stated) | inactive: 4.01% | –
CC(=O)OCC1(C)CN(c2ccccc2)N(C(=O)c2ccc(C(C)(C)C)cc2)C1=O (configuration not stated) | – | inconclusive [inhibitor, single point]
CCOc1ccc(C(c2c(O)cc(C)n(CCOC)c2=O)N2CCN(c3ccc(F)cc3)CC2)cc1 (configuration not stated) | – | active: 5.62 µM
CC(O)CNc1nc2ccccc2n1CC(=O)NCCc1ccc(Cl)cc1 (configuration not stated) | – | inconclusive [inhibitor, full curve]
O=C(C1=C[C@H](C2CCCCC2)C[C@H](OCc2ccc(CO)cc2)O1)N1CCN(Cc2ccc3c(c2)OCO3)CC1 | inactive: -4.46% | –
C#CCOCCOCCOCCNc1nc(N2CCN(C(=O)[C@H](CCC(=O)O)n3cc(C(N)[C@H](C)CC)nn3)CC2)nc(N2CCN(C(=O)[C@H](Cc3cc4ccccc4[nH]3)n3cc(C(N)[C@H](C)CC)nn3)CC2)n1 (some centres not stated) | – | inconclusive [inhibitor, partial curve]
CC(=O)N1CCN(c2ccc(NC(=O)c3ccccc3)cc2)CC1 | inactive: 1.22% | –
O=C(c1cccs1)[C@@H]1[C@@H]2C(=O)N(Cc3ccc4c(c3)OCO4)C(=O)[C@@H]2C2c3ccccc3C=CN21 (some centres not stated) | – | inconclusive [inhibitor, single point]
CO[C@H]1O[C@H](C)[C@@H](O)C[C@H]1NC(=O)OCc1ccccc1 | inactive: 0.819% | –
CCOC(=O)Cc1csc(NC(=O)CN2CCOCC2)n1 | – | inconclusive [inhibitor, single point]
CCc1ccc(C(=O)Nc2ccc3nc(C)ccc3c2)cc1 | inactive: -1.25% | –
O=C(c1nc2ccc(Cl)cn2c1CN1CCCC1)N1CCc2ccccc2C1 | – | active: 39.8 µM
O=C(NCc1ccccn1)c1cc2n(n1)C(C(F)(F)F)CC(c1ccco1)N2 (configuration not stated) | – | active: 39.8 µM
O=C(CCl)Nc1ccccc1Sc1ccccc1 | – | inconclusive [inhibitor, full curve]
NC(=Nc1ccc(N)cc1)C(N)=Nc1ccc(N)cc1 | – | inconclusive [inhibitor, partial curve]
Cc1ccc(/C=C2\CCC3=C2OC(N)=C(C#N)C3c2ccc(C)cc2)cc1 (configuration not stated) | – | inconclusive [inhibitor, full curve]
CC(C)(C)c1ccc(C(=O)N2CCCC2c2cccs2)cc1 (configuration not stated) | inactive: 10.2% | –
CCOC(=O)c1cc(S(=O)(=O)N(C)c2ccccc2)[nH]n1 | – | inconclusive [inhibitor, single point]
Cc1ccc(S(=O)(=O)N(Cc2cccnc2)Cc2cc3ccccc3[nH]c2=O)cc1 | inactive: -19.1% | –
O=c1cc(Nc2cccc(Br)c2)[nH]c(=O)[nH]1 | inactive: 0.933% | –
Cc1ccc([C@@H]2[C@@H]3C(=O)N(c4ccccc4)C(=O)[C@@H]3[C@]3(C)C(=O)N(CC4CC4)CC(=O)N23)o1 | – | inconclusive [inhibitor, partial curve]

Compound | activity change, negative = inhibition | Potency
CCc1ccc(CN(C)Cc2nc(-c3cccc(Cl)c3)no2)nc1 | inactive: -7.96% [at 57.1 µM] | –
CN(C)S(=O)(=O)c1cccc(NC(=O)COc2ccccc2C(=O)NCc2ccccc2)c1 | inactive: -2.1% | –
Cc1cc2c(cc(C(=O)OC(C(=O)NCc3ccco3)C(C)C)n2C)o1 (configuration not stated) | inactive: 0% | –
O=C(NCC(c1ccco1)S(=O)(=O)c1cccs1)c1c(F)cccc1F (configuration not stated) | – | active: 0.708 µM
COCCn1c(C)cc(O)c(C(c2ccccc2Cl)N2CCN(c3ccccc3)CC2)c1=O (configuration not stated) | – | active: 3.16 µM
COc1ccc(-n2cc(CNCCCN3CCCC3=O)c(-c3ccccc3Cl)n2)cc1 | – | active: 44.7 µM
Cc1ccc(NC(=O)/C(=C\c2ccc([N+](=O)[O-])cc2)NC(=O)c2ccccc2)cc1 | inactive: -6.54% | –
CC1CCCCN1C(=O)c1cnn2c(C(F)(F)F)cc(-c3ccco3)nc12 (configuration not stated) | – | inconclusive [inhibitor, partial curve, poor fit]
CCC(C)NC(=S)Nc1ccc(F)cc1 (configuration not stated) | inactive: 3.71% | –
COc1ccc(S(=O)(=O)Nc2nc3ccccc3nc2Nc2ccc3c(c2)OCO3)cc1 | – | inconclusive [inhibitor, single point]
CCOC(=O)c1c(C)oc(NC(=O)CCl)c1C(=O)OCC | – | active: 14.1 µM
CC(C)NS(=O)(=O)c1ccc(NC(=S)NC(=O)c2cccc([N+](=O)[O-])c2)cc1 | – | inconclusive [inhibitor, partial curve]
Cc1cc(/C=C2/NC(=O)NC2=O)c(C)n1-c1sc2c(c1C#N)CCCC2 | – | inconclusive [inhibitor, partial curve, poor fit]
CCOC(=O)N1N=C(c2ccc(C)cc2)CC1(O)C(F)(F)F (configuration not stated) | inactive: 6.27% | –
Cc1ccc2oc(=O)cc(CN3CCN(Cc4ccccc4)CC3)c2c1 | – | inconclusive [inhibitor, partial curve]
CN(C)CCNC(=O)c1ccc2c(=O)n(Cc3ccc(Cl)cc3)c(=S)[nH]c2c1 | – | active: 44.7 µM
CC1=NN(C(N)=S)C(=O)C1N=Nc1ccccc1C(=O)O (configuration not stated) | – | inconclusive [inhibitor, full curve, poor fit]
NC(=O)c1c(NC(=O)CSc2nnc(-c3ccco3)n2N)sc2c1CCCC2 | – | active: 11.2 µM
O=[N+]([O-])c1cc2c(cc1[N+](=O)[O-])OCCOCCOCCOCCO2 | – | inconclusive [inhibitor, single point]
COc1ccc2cc(C(C)=O)c(=O)oc2c1 | inactive: 2.44% | –
Cc1ccc(C(=O)NC(=S)NCc2cccnc2)c(C)c1 | – | active: 44.7 µM
O=C(O)c1ccc(Cl)c(S(=O)(=O)Nc2ccccc2Cc2ccccc2)c1 | – | inconclusive [inhibitor, single point]
Cc1cc(C)c2cc(CN(Cc3ccco3)C(=S)NCC3CCCO3)c(=O)[nH]c2c1 (configuration not stated) | – | active: 25.1 µM
O=C1NC(=O)C(=Cc2cc3c(cc2[N+](=O)[O-])OCO3)C(=O)N1 | – | inconclusive [inhibitor, full curve, poor fit]
